{"source": "the supplement of paper PMC3334620", "note": "In all, about 33,000 sequences were measured (“E-score (-0.5 to 0.5)”: median about -0.012, highest 2% from about 0.27 on). The list shows a part of the results."}
{"target": "T1, Vhr1 (UniProt P40522)", "T1 sequence": "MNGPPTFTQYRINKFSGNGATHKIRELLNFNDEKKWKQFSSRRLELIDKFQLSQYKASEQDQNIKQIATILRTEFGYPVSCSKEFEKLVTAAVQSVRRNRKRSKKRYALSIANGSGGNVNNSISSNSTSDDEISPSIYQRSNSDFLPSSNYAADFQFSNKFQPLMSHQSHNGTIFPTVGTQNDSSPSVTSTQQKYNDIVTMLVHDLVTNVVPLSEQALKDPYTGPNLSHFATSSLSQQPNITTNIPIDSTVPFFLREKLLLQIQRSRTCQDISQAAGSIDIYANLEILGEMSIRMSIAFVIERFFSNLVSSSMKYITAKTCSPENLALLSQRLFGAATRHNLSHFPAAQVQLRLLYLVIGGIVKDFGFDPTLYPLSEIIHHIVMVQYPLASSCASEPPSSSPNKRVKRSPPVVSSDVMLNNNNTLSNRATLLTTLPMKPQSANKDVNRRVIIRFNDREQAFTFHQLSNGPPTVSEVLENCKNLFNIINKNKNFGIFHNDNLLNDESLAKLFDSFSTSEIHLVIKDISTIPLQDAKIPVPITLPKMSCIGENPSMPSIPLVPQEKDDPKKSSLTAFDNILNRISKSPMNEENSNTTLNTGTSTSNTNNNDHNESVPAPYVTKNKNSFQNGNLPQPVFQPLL", "experiment": "PBM E-score (8-mer binding enrichment) (E-score (-0.5 to 0.5)); higher = stronger / more preferred TF binding; most listed sequences are background and not binding sites", "details": "protein concentration: 200 nM; construct: GST-full length", "in_short": "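Full-length yeast transcription factors or their DNA-binding domains, GST-tagged and expressed with PURExpress, were applied at about 100-200 nM to universal all-10-mer Agilent arrays. These arrays had been made double-stranded by primer extension on fresh or once-stripped slides. Detection used fluorescent anti-GST, normalisation used masliner, and E-scores for ungapped eight-base words pooled with reverse complements came from the Universal PBM Analysis Suite.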"}
{"sequence": "CCTAAAAC", "PBM E-score": -0.29}
{"sequence": "TACTCATA", "PBM E-score": 0.222}
{"sequence": "ATGTTAAG", "PBM E-score": -0.0427}
{"sequence": "ACGAGCTA", "PBM E-score": -0.135}
{"sequence": "GAAATCCC", "PBM E-score": -0.214}
{"sequence": "GGTCTGGA", "PBM E-score": -0.071}
{"sequence": "TCCCGCGA", "PBM E-score": 0.115}
{"sequence": "ACTTATGC", "PBM E-score": -0.0166}
{"sequence": "GAGATATC", "PBM E-score": -0.0534}
{"sequence": "CGCCGTAG", "PBM E-score": -0.00474}
{"sequence": "GGCGAACC", "PBM E-score": 0.101}
{"sequence": "CAAAACTC", "PBM E-score": 0.00076}
{"sequence": "GCCCGCTA", "PBM E-score": -0.183}
{"sequence": "CGAATTAC", "PBM E-score": -0.128}
{"sequence": "TGATGACA", "PBM E-score": 0.0316}
{"sequence": "AGGGTGCG", "PBM E-score": -0.0564}
{"sequence": "CGGGTCCA", "PBM E-score": -0.11}
{"sequence": "CCGCGCGG", "PBM E-score": 0.346}
{"sequence": "ACAATACA", "PBM E-score": 0.0254}
{"sequence": "ACCAATAC", "PBM E-score": 0.107}
{"sequence": "TTAACAAA", "PBM E-score": -0.168}
{"sequence": "CGATACAA", "PBM E-score": -0.0317}
{"sequence": "AGAGAGCA", "PBM E-score": -0.0395}
{"sequence": "CACAAATA", "PBM E-score": 0.0469}
{"sequence": "GCGTCGCA", "PBM E-score": 0.0903}
{"sequence": "AGGAGCGG", "PBM E-score": -0.187}
{"sequence": "AAGGCCAC", "PBM E-score": -0.111}
{"sequence": "CCACCAGC", "PBM E-score": 0.198}
{"sequence": "GACGCCGA", "PBM E-score": 0.206}
{"sequence": "GCCGGGAC", "PBM E-score": -0.195}
{"sequence": "CCCCATTC", "PBM E-score": -0.0459}
{"sequence": "GAAACTGC", "PBM E-score": -0.218}
{"sequence": "CGAGTTCC", "PBM E-score": 0.0292}
{"sequence": "TAATCATA", "PBM E-score": 0.314}
{"sequence": "ATGCCACA", "PBM E-score": 0.114}
{"sequence": "GGAGGTAC", "PBM E-score": -0.0892}
{"sequence": "AACAGCAT", "PBM E-score": 0.0405}
{"sequence": "ATAGGGCA", "PBM E-score": -0.231}
{"sequence": "CCATACCG", "PBM E-score": 0.129}
{"sequence": "TATGAATA", "PBM E-score": -0.0433}
{"sequence": "AGTACCTA", "PBM E-score": 0.058}
{"sequence": "AGTTAACA", "PBM E-score": 0.00248}
{"sequence": "GTAAACAC", "PBM E-score": 0.113}
{"sequence": "CACTTTCA", "PBM E-score": -0.116}
{"sequence": "GCATGACC", "PBM E-score": -0.00817}
{"sequence": "GACCGTCA", "PBM E-score": -0.259}
{"sequence": "CCCAGGAG", "PBM E-score": -0.0461}
{"sequence": "CCAGGGCA", "PBM E-score": -0.0412}
{"sequence": "ACGGGATA", "PBM E-score": 0.0764}
{"sequence": "ATAAGGTC", "PBM E-score": 0.0363}
{"sequence": "AGTACTTA", "PBM E-score": -0.0623}
{"sequence": "AGCCAACG", "PBM E-score": -0.126}
{"sequence": "AGCGAACT", "PBM E-score": -0.0232}
{"sequence": "GACATATC", "PBM E-score": 0.21}
{"sequence": "CAGAACAA", "PBM E-score": 0.0968}
{"sequence": "CCTCGAGC", "PBM E-score": 0.0411}
{"sequence": "AATGACCA", "PBM E-score": 0.0449}
{"sequence": "AGTTCGAC", "PBM E-score": -0.0798}
{"sequence": "CGTGCACA", "PBM E-score": -0.105}
{"sequence": "TCGGAAAA", "PBM E-score": -0.0937}
{"sequence": "GCTCCGCA", "PBM E-score": 0.087}
{"sequence": "ATGCATTC", "PBM E-score": 0.0199}
{"sequence": "CCCTCGAA", "PBM E-score": -0.109}
{"sequence": "GCAACTTA", "PBM E-score": -0.113}
{"sequence": "ACCACTAC", "PBM E-score": 0.0525}
{"sequence": "GTGCTAAA", "PBM E-score": 0.0463}
